# Some of the results follow.
# B1: CBM32-1 (Clostridium perfringens) (protein)
# chain: MGSSHHHHHHSSGLVPRGSHMASGVEITEGVTVTAKGNTEGNTADLAIDGDLSTYWESSNDYKWIEVDLGGIYELSKIEIFNKDEAVYKYNIYASEDGENFNKIAYKNNDNVSDSNGNVHTIDNVRAGKIRIDVVQNSNSDRVNIAEINVFG
# Columns and labels:
# Assay in all cases: glycan array binding signal (z-score within array); higher = stronger binding
# Settings in all cases: glycan notation: IUPAC condensed, linker removed
# [1] = biological target: Neu5Ac(a2-3)Gal(b1-4)[Fuc(a1-3)]GlcNAc
# Summary of the method: (§1)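 The binding signal is a Z-score computed within each array and averaged over linkers. Arrays of the same protein sequence at different concentrations or buffers were also averaged together. Data originate from 3228 arrays in the Consortium for Functional Glycomics database, kept only where the protein sequence was available.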
# [2] = biological target: Neu5Ac(a2-3)Gal(b1-4)[Fuc(a1-3)]GlcNAc(b1-3)Gal
# Summary of the method: as §1
# [3] = biological target: Neu5Ac(a2-3)Gal(b1-4)[Fuc(a1-3)]GlcNAc(b1-3)Gal(b1-4)GlcNAc
# Summary of the method: as §1
# [4] = biological target: Neu5Ac(a2-3)Gal(b1-4)[Fuc(a1-3)]GlcNAc(b1-3)Gal(b1-4)[Fuc(a1-3)]GlcNAc(b1-3)Gal(b1-4)[Fuc(a1-3)]GlcNAc
# Summary of the method: as §1
# [5] = biological target: Neu5Ac(a2-3)Gal(b1-4)[Fuc(a1-3)]GlcNAc(b1-6)[Gal(b1-3)]GalNAc
# Summary of the method: as §1
# [6] = biological target: Neu5Ac(a2-3)Gal(b1-4)[Fuc(a1-3)]GlcNAc6S
# Summary of the method: as §1
# [7] = biological target: Neu5Ac(a2-3)Gal6S(b1-4)GlcNAc
# Summary of the method: as §1
# [8] = biological target: Neu5Ac(a2-3)Gal6S(b1-4)[Fuc(a1-3)]GlcNAc
# Summary of the method: as §1
# Neu5Ac(a2-3)GalNAc = biological target: Neu5Ac(a2-3)GalNAc
# Summary of the method: as §1
# [9] = biological target: Neu5Ac(a2-3)GalNAc(b1-4)GlcNAc
# Summary of the method: as §1
# [10] = biological target: Neu5Ac(a2-3)[GalNAc(b1-4)]Gal(b1-4)Glc
# Summary of the method: as §1
# [11] = biological target: Neu5Ac(a2-3)[GalNAc(b1-4)]Gal(b1-4)GlcNAc
# Summary of the method: as §1
# [12] = biological target: Neu5Ac(a2-3)[Neu5Ac(a2-6)]GalNAc
# Summary of the method: as §1
# Neu5Ac(a2-6)Gal = biological target: Neu5Ac(a2-6)Gal
# Summary of the method: as §1
# Neu5Ac(a2-6)Gal(b1-4)Glc = biological target: Neu5Ac(a2-6)Gal(b1-4)Glc
# Summary of the method: as §1
# [13] = biological target: Neu5Ac(a2-6)Gal(b1-4)GlcNAc
# Summary of the method: as §1
# [14] = biological target: Neu5Ac(a2-6)Gal(b1-4)GlcNAc(b1-2)Man(a1-3)[Gal(b1-4)GlcNAc(b1-2)Man(a1-6)]Man(b1-4)GlcNAc(b1-4)GlcNAc
# Summary of the method: as §1
# [15] = biological target: Neu5Ac(a2-6)Gal(b1-4)GlcNAc(b1-2)Man(a1-3)[GlcNAc(b1-2)Man(a1-6)]Man(b1-4)GlcNAc(b1-4)GlcNAc
# Summary of the method: as §1
# [16] = biological target: Neu5Ac(a2-6)Gal(b1-4)GlcNAc(b1-2)Man(a1-3)[GlcNAc(b1-2)Man(b1-4)GlcNAc(b1-2)Man(a1-6)]Man(b1-4)GlcNAc(b1-4)GlcNAc
# Summary of the method: as §1
# [17] = biological target: Neu5Ac(a2-6)Gal(b1-4)GlcNAc(b1-2)Man(a1-3)[Neu5Ac(a2-6)Gal(b1-4)GlcNAc(b1-2)Man(a1-6)]Man(b1-4)GlcNAc(b1-4)GlcNAc
# Summary of the method: as §1
# [18] = biological target: Neu5Ac(a2-6)Gal(b1-4)GlcNAc(b1-2)Man(a1-6)[Gal(b1-4)GlcNAc(b1-2)Man(a1-3)]Man(b1-4)GlcNAc(b1-4)GlcNAc
# Summary of the method: as §1
# [19] = biological target: Neu5Ac(a2-6)Gal(b1-4)GlcNAc(b1-2)Man(a1-6)[GlcNAc(b1-2)Man(a1-3)]Man(b1-4)GlcNAc(b1-4)GlcNAc
# Summary of the method: as §1
# [20] = biological target: Neu5Ac(a2-6)Gal(b1-4)GlcNAc(b1-3)Gal(b1-4)GlcNAc
# Summary of the method: as §1
# [21] = biological target: Neu5Ac(a2-6)Gal(b1-4)GlcNAc(b1-3)Gal(b1-4)[Fuc(a1-3)]GlcNAc(b1-3)Gal(b1-4)[Fuc(a1-3)]GlcNAc
# Summary of the method: as §1
# [22] = biological target: Neu5Ac(a2-6)Gal(b1-4)GlcNAc6S
# Summary of the method: as §1
# Neu5Ac(a2-6)GalNAc = biological target: Neu5Ac(a2-6)GalNAc
# Summary of the method: as §1
# [23] = biological target: Neu5Ac(a2-6)GalNAc(b1-4)GlcNAc
# Summary of the method: as §1
# Neu5Ac(a2-8)Neu5Ac = biological target: Neu5Ac(a2-8)Neu5Ac
# Summary of the method: as §1
# [24] = biological target: Neu5Ac(a2-8)Neu5Ac(a2-3)Gal(b1-4)Glc
# Summary of the method: as §1
# [25] = biological target: Neu5Ac(a2-8)Neu5Ac(a2-3)[GalNAc(b1-4)]Gal(b1-4)Glc
# Summary of the method: as §1
# [26] = biological target: Neu5Ac(a2-8)Neu5Ac(a2-8)Neu5Ac
# Summary of the method: as §1
# [27] = biological target: Neu5Ac(a2-8)Neu5Ac(a2-8)Neu5Ac(a2-3)Gal(b1-4)Glc
# Summary of the method: as §1
# [28] = biological target: Neu5Ac(a2-8)Neu5Ac(a2-8)Neu5Ac(a2-3)[GalNAc(b1-4)]Gal(b1-4)Glc
# Summary of the method: as §1
# [29] = biological target: Neu5Ac(a2-8)Neu5Ac(a2-8)Neu5Ac(a2-8)Neu5Ac(a2-3)[GalNAc(b1-4)]Gal(b1-4)Glc
# Summary of the method: as §1
# [30] = biological target: Neu5Ac(b2-6)Gal(b1-4)GlcNAc
# Summary of the method: as §1
# Neu5Ac(b2-6)GalNAc = biological target: Neu5Ac(b2-6)GalNAc
# Summary of the method: as §1
# [31] = biological target: Neu5Ac9Ac(a2-6)Gal(b1-4)GlcNAc
# Summary of the method: as §1
# [32] = biological target: Neu5Gc(a2-3)Gal(b1-3)GlcNAc
# Summary of the method: as §1
# [33] = biological target: Neu5Gc(a2-3)Gal(b1-3)[Fuc(a1-4)]GlcNAc
# Summary of the method: as §1
# Neu5Gc(a2-3)Gal(b1-4)Glc = biological target: Neu5Gc(a2-3)Gal(b1-4)Glc
# Summary of the method: as §1
# [34] = biological target: Neu5Gc(a2-3)Gal(b1-4)GlcNAc
# Summary of the method: as §1
# [35] = biological target: Neu5Gc(a2-3)Gal(b1-4)[Fuc(a1-3)]GlcNAc
# Summary of the method: as §1
# [36] = biological target: Neu5Gc(a2-6)Gal(b1-4)GlcNAc
# Summary of the method: as §1
# Neu5Gc(a2-6)GalNAc = biological target: Neu5Gc(a2-6)GalNAc
# Summary of the method: as §1
# [37] = biological target: Neu5Gc(b2-6)Gal(b1-4)GlcNAc
# Summary of the method: as §1
binder,measurement,setting,value
B1,glycan array binding signal (z-score),[1],-0.4
same,glycan array binding signal (z-score),[2],-0.613
same,glycan array binding signal (z-score),[3],0.808
same,glycan array binding signal (z-score),[4],0.396
same,glycan array binding signal (z-score),[5],0.681
same,glycan array binding signal (z-score),[6],-0.223
same,glycan array binding signal (z-score),[7],0.169
same,glycan array binding signal (z-score),[8],-0.495
same,glycan array binding signal (z-score),Neu5Ac(a2-3)GalNAc,-0.19
same,glycan array binding signal (z-score),[9],-0.457
same,glycan array binding signal (z-score),[10],-0.624
same,glycan array binding signal (z-score),[11],-0.371
same,glycan array binding signal (z-score),[12],-0.295
same,glycan array binding signal (z-score),Neu5Ac(a2-6)Gal,-0.623
same,glycan array binding signal (z-score),Neu5Ac(a2-6)Gal(b1-4)Glc,-0.487
same,glycan array binding signal (z-score),[13],-0.423
same,glycan array binding signal (z-score),[14],0.04
same,glycan array binding signal (z-score),[15],-0.381
same,glycan array binding signal (z-score),[16],-0.172
same,glycan array binding signal (z-score),[17],-0.463
same,glycan array binding signal (z-score),[18],-0.218
same,glycan array binding signal (z-score),[19],-0.62
same,glycan array binding signal (z-score),[20],0.062
same,glycan array binding signal (z-score),[21],0.193
same,glycan array binding signal (z-score),[22],0.149
same,glycan array binding signal (z-score),Neu5Ac(a2-6)GalNAc,-0.5
same,glycan array binding signal (z-score),[23],-0.242
same,glycan array binding signal (z-score),Neu5Ac(a2-8)Neu5Ac,0.297
same,glycan array binding signal (z-score),[24],0.005
same,glycan array binding signal (z-score),[25],-0.358
same,glycan array binding signal (z-score),[26],-0.099
same,glycan array binding signal (z-score),[27],-0.631
same,glycan array binding signal (z-score),[28],0.108
same,glycan array binding signal (z-score),[29],0.537
same,glycan array binding signal (z-score),[30],-0.579
same,glycan array binding signal (z-score),Neu5Ac(b2-6)GalNAc,-0.382
same,glycan array binding signal (z-score),[31],-0.914
same,glycan array binding signal (z-score),[32],-0.339
same,glycan array binding signal (z-score),[33],-0.136
same,glycan array binding signal (z-score),Neu5Gc(a2-3)Gal(b1-4)Glc,3.02
same,glycan array binding signal (z-score),[34],-0.781
same,glycan array binding signal (z-score),[35],0.039
same,glycan array binding signal (z-score),[36],-0.785
same,glycan array binding signal (z-score),Neu5Gc(a2-6)GalNAc,-0.949
same,glycan array binding signal (z-score),[37],-0.925

# Source: the supplement of paper PMC8728848
